Data as given in PubChem BioAssay AID1477 (National Center for Advancing Translational Sciences (NCATS), 2009).
Out of some 230,000 compounds screened, fewer than 10 were called active. The shares of active, inactive and inconclusive entries below differ from those in the screen. The call rests on the fitted dose curve; in most records, active means well fitted curve in the direction sought with a large enough effect; inconclusive means small, poorly fitted or top-dose-only effect, or effect the other way, or another doubt; inactive means no such curve, though single readings can be large or run the other way. Potencies of inconclusive entries are left out as doubtful fits.

molecular target: Runt-related transcription factor 1 (Homo sapiens) + Core-binding factor subunit beta (Homo sapiens) (UniProt Q01196+Q13951); test: qHTS Assay for Compounds Blocking the Interaction Between CBF-beta and RUNX1 for the Treatment of Acute Myeloid Leukemia; details: AlphaScreen CBFb-His/RUNX1-biotin binding, biochemical; activity, negative = inhibition: at 59.8 µM (top of the series) unless noted; on activity, negative = inhibition: % of control where 0% means no effect
Excerpt: NIH Chemical Genomics Center [NCGC]
NIH Molecular Libraries Probe Production centers Network [MLPCN]
Assay Submitter (PI): Paul Liu
Core Binding Factor (CBF) abnormalities are associated with 20-25% of all acute myeloid leukemias (AML), of which 5-10% are further sub classified as acute myelomonocytic leukemia with eosinophilia, also known as M4Eo in the FAB classification scheme. This subtype of leukemia is usually associated with chromosome 16 inversion (p13:q22). Chromosome 16 inversion results in formation of the fusion oncogene CBFB-MYH11, which encodes the fusion protein CBF-beta-SMMHC.
It has been hypothesized that the interference of CBF-beta and RUNX1 binding could have therapeutic implications for patients with CBF mediated leukemias. We developed a CBF-beta and RUNX1 binding assay in AlphaScreenTM format and optimized it for high throughput screening to search for inhibitors. The goal of this project is to screen MLPCN's compound collection (MLSMR) for identifying the inhibitors of the interaction between CBF-beta and RUNX1 proteins as research probes. If these probes work well in the animal models, the ultimate goal of this project is to development a new drug treatment for this disease.
This assay can not be used to assess how apparent inhibitors interfere with protein binding, and whether inhibitors specifically bind to either protein. Disruption of this protein-protein interaction, through any mechanism, is the intended target activity.
NCGC Assay Protocol Summary:
Step, Parameter, Description
(1) Reagent, 3 uL CBFb-His/RUNX1-biotin mix incubated together for 20 minutes at room temperature (30 nM each)
(2) Compound or control, 23 nL compound stock solution
(3) Incubation, 15 minutes at Room temperature
(4) Reagent, 1 uL 50 ng each of beads (Nickel beads and streptavidin beads)
(5) Incubation, 90 minutes at Room temperature
(6) Detection, Excitation=365 nm Emission=440 nm, Envision reader in AlphaScreenTM mode
Keywords: MLSMR, MLPCN, NIH Roadmap, qHTS, NCGC, Core binding factor, CBF, CBF-beta, Acute myeloid leukemia

Row | SMILES | activity, negative = inhibition | Potency
1 | Cc1ccc(C)c(NC(=S)NNC(=O)c2ccc(Br)o2)c1 | inactive: -0.874% | 
2 | Nc1nnc(CC(=O)N/N=C/c2ccc(-c3ccccc3)o2)s1 | inactive: -4.63% | 
3 | CC1CCCN(c2nc3ccsc3c(=O)s2)C1 (stereo not given) |  | inconclusive [activator, partial curve]
4 | O=C(CCl)NCCN1C(=O)S/C(=C\c2cccnc2)C1=O |  | inconclusive [activator, single point]
5 | CCSC1=N/C(=C/c2ccsc2)C(=O)N1c1ccccc1 |  | inconclusive [activator, partial curve]
6 | CCCCNC(=O)NC12CC3CC(CC(C3)C1)C2 | inactive: 10.1% | 
7 | CCN(CC)c1ccc(/C=C/c2cc(-c3ccccc3)c3ccccc3n2)cc1 |  | inconclusive [activator, partial curve]
8 | O=C1/C(=C\c2ccc(O)c(O)c2)Oc2cc(O)ccc21 |  | inconclusive [inhibitor, partial curve]
9 | CCc1ccccc1NCC(=O)Nc1ccc(Cl)c(C(F)(F)F)c1 |  | inconclusive [activator, partial curve]
10 | Cc1cc(C)cc(N2C(=O)C3CC=CCC3C2=O)c1 (stereo not given) |  | inconclusive [inhibitor, partial curve, poor fit]
11 | COc1ccc2[nH]c3c(c2c1)CCNC3 |  | inconclusive [inhibitor, single point]
12 | O=P(O)(O)C(O)c1ccc2ccccc2c1 (stereo not given) |  | inconclusive [activator, single point]
13 | Cc1cc(N2CCC(C)CC2)n2ncc(-c3ccccc3)c2n1 |  | inconclusive [activator, partial curve]
14 | O=C1NC(=O)N(c2ccc3c(c2)OCO3)C(=O)/C1=C\c1ccc(-c2ccccc2C(=O)O)o1 |  | inconclusive [inhibitor, single point]
15 | CCC(Oc1ccccc1)C(=O)Nc1ncc([N+](=O)[O-])s1 (stereo not given) | inactive: -7.42% | 
16 | COc1ccc(C(CC(=O)c2ccc(C)cc2)Nc2ccc([N+](=O)[O-])cc2)cc1 (stereo not given) |  | inconclusive [inhibitor, partial curve]
17 | Cc1cc(-c2sccc2C)nc(-n2cccc2)n1 |  | inconclusive [inhibitor, partial curve]
18 | Cc1c(C(=O)N/N=C/c2ccc(-c3ccccc3[N+](=O)[O-])o2)sc(N)c1C#N |  | inconclusive [inhibitor, single point]
19 | COc1cc(NC(=O)c2ccccc2NS(=O)(=O)c2ccc(Cl)s2)cc(OC)c1 |  | inconclusive [inhibitor, single point]
20 | Cc1cccc(N/C=C(\[N+](=O)[O-])S(=O)(=O)c2ccccc2)c1C | inactive: 2.27% | 
21 | Cc1ccc(SCC(=O)N2CCOCC2)cc1 | inactive: 3.56% | 
22 | S=C(c1ccc(-c2cc(Cl)ccc2Cl)o1)N1CCOCC1 |  | inconclusive [inhibitor, single point]
23 | CCOc1ccc(C(=O)N/N=C/c2cccc3cccnc23)cc1 |  | inconclusive [inhibitor, partial curve]
24 | CCC(=O)OCCNc1cc(Sc2nccn2C)c2nonc2c1[N+](=O)[O-] | inactive: -5.8% | 

Row | SMILES | activity, negative = inhibition | Potency
25 | Cc1cc2ncn(/N=C/c3ccc4c(c3)OCO4)c2cc1C |  | inconclusive [activator, single point]
26 | O=C(CN1CCN(c2ccccc2O)CC1)NC(=O)NC1CCCC1 |  | inconclusive [inhibitor, single point]
27 | Cc1ccc(-c2ccc(=O)n(CC(=O)N3CCN(c4cccc(C)c4)C(C)C3)n2)cc1 (stereo not given) | inactive: -6.88% | 
28 | CC[C@@H]1C(c2cccc(C)c2)=NN(c2ccccc2)[C@H]1C(=O)N1CCOC1=O |  | inconclusive [activator, single point]
29 | COC(=O)[C@@H]1CC[C@H](C)[C@@H](c2ccc(C)cc2)N1C(=O)c1ccc(/C=N\O[C@@H](C)CN2CCCCc3nc(C)c(C)cc32)cc1 |  | inconclusive [activator, full curve, poor fit]
30 | O=C(NCc1ccco1)c1ccc(Oc2ccccc2)cc1 | inactive: 1.1% | 
31 | CCOc1ccc(-n2c(SCc3ccc([N+](=O)[O-])cc3)nnc2-c2ccccc2)cc1 |  | inconclusive [inhibitor, partial curve]
32 | CN=c1scc(-c2ccccc2F)n1/N=C(\C)c1cccnc1 |  | inconclusive [inhibitor, partial curve]
33 | CCCCCSc1cc(OC)c(CCN)cc1OC | inactive: 4.79% | 
34 | C=CCn1c(C(c2ccccc2)c2ccccc2)n[nH]c1=S | inactive: 3.14% | 
35 | CSc1ccccc1NC(=O)CN(C)CC(=O)NCc1ccccc1 |  | inconclusive [inhibitor, single point]
36 | CC(C)c1cc(=O)oc2c3c4c(cc12)CCCN4CCC3 |  | inconclusive [inhibitor, single point]
37 | N#CC(C#N)=NNc1ccc(S(=O)(=O)N2CCCC2)cc1 |  | inconclusive [inhibitor, single point]
38 | CCc1ccc(OCC(=O)Nc2ccc(-c3cc4ccccc4oc3=O)c(OC)c2)cc1 |  | inconclusive [activator, single point]
39 | Cc1cccc(Nc2nc(N)c([N+](=O)[O-])c(NCc3ccccc3)n2)c1 |  | inconclusive [inhibitor, single point]
40 | CCCOC(=O)c1cc2c(cn1)[nH]c1ccccc12 |  | inconclusive [activator, partial curve, poor fit]
41 | CC(C)(C)c1ccc(-c2nnc3sc(-c4ccccn4)nn23)cc1 |  | inconclusive [inhibitor, partial curve]
42 | O=C(CSc1nnc(COc2ccccc2Cl)o1)NC(=O)NCc1ccco1 |  | inconclusive [inhibitor, partial curve]
43 | CN(C(=O)COC(=O)c1cc(-c2ccco2)nc2ccccc12)C1CCS(=O)(=O)C1 (stereo not given) |  | inconclusive [inhibitor, partial curve]
44 | CC1NC(=O)NC1CCCCCC(=O)NCCc1ccccc1 (stereo not given) |  | inconclusive [inhibitor, full curve]
45 | COc1cccc(=O)c2c(C)n(-c3ccc(C(=O)O)cc3)c(C)c12 |  | inconclusive [inhibitor, single point]
46 | Cc1cc(C)cc(NC(=S)/C(=C(\[O-])c2ccc(Cl)s2)[n+]2cccc(C)c2)c1 | inactive: -6.7% | 
47 | Cc1ccc(S(=O)(=O)N2CCOCC2)cc1C(=O)Nc1ccc2c(c1)CCC2 | inactive: 4.64% | 
48 | Cc1cc(C)c2nc(N3CCCC3)c(C#N)cc2c1 |  | inconclusive [activator, single point]

Row | SMILES | activity, negative = inhibition | Potency
49 | CCCCCCCCC/C=C/CC1CC(=O)OC1=O (stereo not given) | inactive: 0.347% [at 21.7 µM] | 
50 | COc1ccccc1C1Nc2cccc3cccc(c23)N1 |  | inconclusive [inhibitor, single point]
51 | CC(=O)N(/N=C1\Sc2ccccc2C1=O)c1ccccc1C |  | inconclusive [inhibitor, partial curve]
52 | Cc1ccccc1OCCCCn1cnc2ccccc21 | inactive: -0.272% | 
53 | Nc1ccccc1Nc1cc(-c2ccccc2)nn1-c1ccccc1 |  | inconclusive [inhibitor, partial curve]
54 | O=[N+]([O-])c1ccccc1-c1ccc(C(=S)N2CCCCC2)o1 |  | inconclusive [inhibitor, single point]
55 | Cc1ccc(C)n1-c1sccc1C(=O)O |  | inconclusive [inhibitor, partial curve]
56 | S=C(N=Nc1ccccc1)NNc1ccccc1 |  | inconclusive [inhibitor, partial curve]
57 | COc1ccc(-c2cc3ccccc3c(=O)o2)cc1 |  | inconclusive [activator, partial curve]
58 | CCCCC/C=C\C/C=C\C/C=C\C/C=C\CCCC(=O)N[C@H](C)CO |  | inconclusive [inhibitor, single point]
59 | CC/C=C\C/C=C\C/C=C\C/C=C\C/C=C\C/C=C\CCC(=O)O |  | inconclusive [activator, single point]
60 | Fc1ccc(CSc2ccc3nnc(-c4ccccn4)n3n2)cc1 |  | inconclusive [inhibitor, single point]
61 | CC(C)(C)c1ccc(OCCNC(=O)c2ncn[nH]2)cc1 |  | inconclusive [inhibitor, partial curve]
62 | N/C(=N\OC(=O)CCc1ccccc1)c1ccc(Br)cc1 |  | inconclusive [activator, single point]
63 | CSc1ccc(CN(C)CC(=O)Nc2ccc(C)cc2Br)cc1 |  | inconclusive [activator, single point]
64 | CC1CCN(c2ccc([N+](=O)[O-])c(SCCO)c2)CC1 |  | inconclusive [activator, single point]
65 | O=C(N/N=C/C=C/c1ccc(Br)cc1)C(O)c1ccccc1 (stereo not given) | inactive: 3.49% | 
66 | O=S(=O)(c1ccc(N2CCC(c3ccc(Cl)cc3)=N2)cc1)N(CCO)CCO |  | inconclusive [activator, partial curve]
67 | COc1cc(SC)ccc1C(=O)N1CCN(c2ccc(O)cc2)CC1 |  | inconclusive [inhibitor, single point]
68 | COC(=O)c1ccc(NC(=S)NCCc2cccc(C)c2)cc1 | inactive: 7.9% | 
69 | Cc1cc(C)nc(SCC(=O)Nc2ncccn2)n1 | inactive: 6.15% | 
70 | CCCCC[C@@H](/C=C/C=C\C/C=C\C/C=C\CCCC(=O)O)OO |  | inconclusive [activator, single point]
